In PubChem BioAssay AID624173 (National Center for Advancing Translational Sciences (NCATS), 2012):
Values joined by “and” are separate entries in the source; they are usually repeats but may differ in a detail not shown here. Equal entries are not always repeated. Hit rate of the full screen: of about 410,000 compounds, about 490 (0.12%) were called active. The shares of active, inactive and inconclusive entries below differ from those in the screen. The call rests on the fitted dose curve; in most records, active means well fitted inhibition curve with a large enough effect; inconclusive means small, poorly fitted or top-dose-only effect; inactive means flat fitted curve, though single readings scatter. Where the call is inconclusive, the potency comes from a doubtful curve fit.

These compounds were tested against pyruvate kinase (Trypanosoma brucei) (UniProt Q57TT1) (assay: qHTS of Trypanosoma Brucei Inhibitors). Details: TbPYK enzyme, Kinase-Glo Plus ATP luminescence, 45 min; series mostly up to 76.8 µM; activity, negative = inhibition: at the top concentration.
Method in brief: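 T. brucei PYK with substrate was exposed to pin-transferred compounds across a concentration series, then started with 130 uM ADP (final). After 45 min at room temperature, Kinase-Glo Plus luminescence was read, normalized and curve-fitted.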
Further: nearly all actives have a fitted effect of over 50% in size.
On the % scale 0 is the no-effect control and ±100 the full control effect; potency means the concentration at half of the fitted maximal effect; tags describe the fitted curve by direction and shape.

Row | SMILES | Potency | activity, negative = inhibition
1 | Cc1ccc2nc(CCl)[n+]([O-])c(-c3ccccc3)c2c1 | inconclusive: 31.6 µM [inhibitor, partial curve, poor fit] | –
2 | Cc1cc(C(=O)Nc2c(C)nc3ccccn3c2=O)ccc1[N+](=O)[O-] | – | inactive: 2.42%
3 | C=CCSc1nc2sc3c(c2c(=O)n1CC)CCc1ccccc1-3 | inconclusive: 44.7 µM [inhibitor, partial curve, poor fit] | –
4 | C=CCn1c(-c2c[nH]c3ccccc23)n[nH]c1=S | inconclusive: 11.2 µM [inhibitor, partial curve, poor fit] | –
5 | CC(=O)NCc1ccc(C(=O)CSc2nnc(-c3ccncc3)n2Cc2ccccc2)o1 | inconclusive: 28.2 µM [inhibitor, partial curve, poor fit] | –
6 | Cc1cc(C)nc(NN2C(=O)/C(=C/c3ccc(O)cc3)SC2=S)n1 | inconclusive: 10 µM [inhibitor, partial curve] | –
7 | N/C(=N\OC(=O)c1ccc(F)cc1)c1nonc1N | inconclusive: 22.4 µM [inhibitor, partial curve] | –
8 | COc1ccc(-c2n[nH]c(=S)n2-c2ccc3c(c2)OCCO3)cc1OC | inconclusive: 10 µM [inhibitor, partial curve, poor fit] | –
9 | Cc1oc(-c2ccccc2F)nc1CS(=O)CC(=O)NC1CCCCC1 (stereo unspecified) | – | inactive: -0.147%
10 | C=CCn1c(O)c(/C=N/NC(=O)CCCC)c(=O)[nH]c1=S | – | inactive: 3.38%
11 | O=C(CBr)N1CCc2ccccc2C(c2ccccc2)C1 (stereo unspecified) | inconclusive: 31.6 µM [inhibitor, single point] | –
12 | CCc1cccc(C)c1NC(=S)NCC1CCN(c2ccc(OC)cc2)C1 (stereo unspecified) | inconclusive: 35.5 µM [inhibitor, partial curve, poor fit] | –
13 | NCCCn1c(C(=O)c2ccc(Cl)cc2)c2ccc([N+](=O)[O-])cc2[n+]1[O-] | – | inactive: 0.234%
14 | COC(=O)C1=C(c2ccc3ccccc3c2)C[C@@H]2CC[C@H]1N2C | – | inactive: 4.32%
15 | Cc1ccc(N/N=C/c2ccc(N3CCOCC3)cc2)cc1C | – | inactive: -3.02%
16 | CC(=O)Nc1ncc([N+](=O)[O-])s1 | – | inactive: 1.71%
17 | CCOc1ccc(C(=O)O/N=C(\N)c2ccccn2)cc1 | active: 12.6 µM | –
18 | CC(C(Sc1ccccc1N)c1ccccc1)[N+](=O)[O-] (stereo unspecified) | active: 25.1 µM | –
19 | O=C(O)Cn1cc(C(=S)N2CCOCC2)c2ccccc21 | inconclusive: 35.5 µM [inhibitor, partial curve, poor fit] | –
20 | CCC(=O)Nc1ccc(C(=O)CSc2nnc(-c3ccc(O)cc3)n2CC2CCCO2)cc1 (stereo unspecified) | inconclusive: 44.7 µM [inhibitor, single point] | –
21 | Cc1ccc(C(=O)Nc2ccc(F)cc2)o1 | – | inactive: -10%
22 | Cc1ccc2c(Cl)c(C(=O)Nc3nn[nH]n3)sc2c1 | inconclusive: 35.5 µM [inhibitor, single point] | –

Row | SMILES | Potency | activity, negative = inhibition
23 | O=C(Nc1ccc2oc(-c3ccncc3)nc2c1)c1ccc([N+](=O)[O-])o1 | – | inactive: 0%
24 | CC(C)n1c(CSCc2ccc(Cl)cc2Cl)n[nH]c1=S | inconclusive: 5.62 µM [inhibitor, partial curve] | –
25 | CCC(C)N1C(=O)/C(=C/c2ccc3c(c2)CCN3CCCCl)C(=O)NC1=S (stereo unspecified) | inconclusive: 20 µM [inhibitor, partial curve] | –
26 | CC(C)n1c(CNC(=O)c2ccccc2F)nnc1SCC(=O)NC1CCCCC1 | inconclusive: 8.91 µM [inhibitor, partial curve] | –
27 | O=C(O)CSc1cc(NS(=O)(=O)c2ccc(Cl)cc2)c2ccccc2c1O | inconclusive: 8.91 µM [inhibitor, partial curve] | –
28 | CCc1c(C)sc(NC(=O)Cn2nc(C)c([N+](=O)[O-])c2C)c1C(N)=O | inconclusive: 11.2 µM [inhibitor, partial curve] | –
29 | COc1ccc(/C=N/n2c(-c3ccccc3)n[nH]c2=S)cc1 | inconclusive: 0.891 µM [inhibitor, full curve, poor fit] | –
30 | Cc1ccc(-n2c(CNc3cccc(Cl)c3)n[nH]c2=S)cc1 | inconclusive: 31.6 µM [inhibitor, single point] | –
31 | Cc1cccc(N2CCN(C(=O)CCn3c(=O)c4cccn4c4cccnc43)CC2)c1C | – | inactive: -0.286%
32 | Cc1nnc(SCc2ccc([N+](=O)[O-])cc2)o1 | inconclusive: 50.1 µM [inhibitor, partial curve, poor fit] | –
33 | CCOC(=O)C1=C(N)N(c2ccccc2)C(=O)C1 | inconclusive: 17.8 µM [inhibitor, partial curve, poor fit] | –
34 | Cc1ccc(-c2cn(-c3ccccc3F)c(=S)[nH]2)cc1 | inconclusive: 1.58 µM [inhibitor, full curve] | –
35 | S=c1[nH]nc(-c2ccccn2)n1/N=C/c1cccc(Cl)c1 | inconclusive: 2 µM [inhibitor, full curve, poor fit] | –
36 | COC(=O)/C=C/COc1ccccc1[N+](=O)[O-] | inconclusive: 31.6 µM [inhibitor, single point] | –
37 | O=C(CSc1nc2c([nH]c3ccccc32)c(=O)n1-c1ccc(Cl)cc1)N1CCCC1 | – | inactive: -1.65%
38 | COc1ccc(OC)c(NC2c3ccccc3C(=O)N2c2cccnc2)c1 (stereo unspecified) | inconclusive: 25.1 µM [inhibitor, single point] | –
39 | Cn1cc(SCC(=O)Nc2ccc3c(c2)OCCO3)c2ccccc21 | inconclusive: 35.5 µM [inhibitor, single point] | –
40 | CCOc1ccc(-n2c(-c3ccccc3)c[nH]c2=S)cc1 | inconclusive: 0.794 µM [inhibitor, full curve] | –
41 | O=C(c1ccccc1)n1c(=S)nc2ccccn21 | inconclusive: 28.2 µM [inhibitor, partial curve, poor fit] | –
42 | COc1ccc2c(c1OC)CN1CCc3cc4c(cc3[C@@H]1[C@@H]2O)OCO4 | – | inactive: -2.85%
43 | COc1ccc(NC2CCCN(C(=O)c3cc(CC(C)C)nc(N)n3)C2)cc1 (stereo unspecified) | inconclusive: 12.6 µM [inhibitor, partial curve, poor fit] | –
44 | O=[N+]([O-])c1nccn1CCCCCCCCCCCN1CCOCC1 | – | inactive: 0.241%

Row | SMILES | Potency | activity, negative = inhibition
45 | CC(C)(C)n1ncc2c(=O)n(Cc3c(Cl)cccc3Br)cnc21 | inconclusive: 50.1 µM [inhibitor, single point] | –
46 | CC1(C)C(/C=C/C=C/C=C/C=C2\N(CCCCS(=O)(=O)O)c3ccc4ccccc4c3C2(C)C)=[N+](CCCCS(=O)(=O)[O-])c2ccc3ccccc3c21 | inconclusive: 17.8 µM [inhibitor, partial curve] and inconclusive: 35.5 µM [inhibitor, partial curve] | –
47 | CCCNC(=O)CSc1cn(CC(=O)N2CCCCCC2)c2ccccc12 | inconclusive: 39.8 µM [inhibitor, partial curve, poor fit] | –
48 | C=CCn1c(CCNC(=O)c2cccs2)nnc1SCC(=O)c1ccc(Cl)cc1 | inconclusive: 25.1 µM [inhibitor, single point] | –
49 | CC(C)(NC(=O)c1ccccc1)c1nc2ccccc2s1 | inconclusive: 31.6 µM [inhibitor, partial curve, poor fit] | –
50 | CCOc1ccc(OCCC(=O)OCC(=O)Nc2ccc(Cl)cn2)cc1 | – | inactive: 2.04%
51 | Nc1ccccc1Sc1ccc(C(=O)c2ccccc2C(=O)O)cc1[N+](=O)[O-] | inconclusive: 20 µM [inhibitor, partial curve, poor fit] | –
52 | CCOC(=O)N1CCN(C(=O)c2cc(COc3ccc(F)cc3F)on2)CC1 | – | inactive: -2.65%
53 | Cc1ccc(SC2=C(Sc3ccc(C)cc3)C(=O)c3ccccc3C2=O)cc1 | inconclusive: 12.6 µM [inhibitor, partial curve] | –
54 | C=CCn1c(-c2cccc([N+](=O)[O-])c2)n[nH]c1=S | inconclusive: 14.1 µM [inhibitor, partial curve, poor fit] | –
55 | Cc1cc([N+](=O)[O-])nn1CCCC(=O)Nc1sc2c(c1C(N)=O)CCCC2 | inconclusive: 10 µM [inhibitor, partial curve, poor fit] | –
56 | COc1ccc(-c2nnc(SCC(=O)Nc3ncc(C(F)(F)F)cc3Cl)n2CC(C)C)cc1 | inconclusive: 20 µM [inhibitor, partial curve, poor fit] | –
57 | COC(=O)c1ccc(NC(=S)NCCc2ccc(OC)cc2)cc1 | inconclusive: 50.1 µM [inhibitor, single point] | –
58 | CN1C(=O)/C(=C\c2ccc(N3CCCCCC3)cc2)C(=O)NC1=S | inconclusive: 31.6 µM [inhibitor, partial curve, poor fit] | –
59 | CCN1C(=O)[C@H]2[C@@H](c3ccc(-c4ccc(C(C)=O)cc4)cc3)N3CCC[C@@]3(C(=O)OC)[C@H]2C1=O | – | inactive: -3.81%
60 | CCn1nc(C)cc1-c1n[nH]c(=S)n1N | inconclusive: 35.5 µM [inhibitor, partial curve, poor fit] | –
61 | O=C(Nc1ccc(OCc2ccccc2)cc1)Nc1ccccc1C(=O)NCCCN1CCOCC1 | inconclusive: 35.5 µM [inhibitor, partial curve, poor fit] | –
62 | CCC(=O)N1CCc2cc(S(=O)(=O)NC(CC(C)C)C(=O)NCc3ccc(C)cc3)ccc21 (stereo unspecified) | – | inactive: -10.3%
63 | Cc1cc(=O)n2nc(N(C)CC(=O)NCc3ccc(Cl)cc3)sc2n1 | – | inactive: 3.53%
64 | COc1ccccc1C(=O)NCc1n[nH]c(=S)n1Cc1ccccc1 | inconclusive: 31.6 µM [inhibitor, partial curve, poor fit] | –
65 | Clc1ccc(Cl)c(-c2nn3c(COc4ccccc4)nnc3s2)c1 | inconclusive: 35.5 µM [inhibitor, single point] | –
66 | O=C(NCC(=O)N1CCN(S(=O)(=O)c2c(F)cccc2F)CC1)c1ccccc1F | – | inactive: -9.71%
